Results published in publication PMC11447022, “Distinct binding conformations of epinephrine with α- and β-adrenergic receptors” (Experimental & Molecular Medicine, 2024).

Biological target: T1, human α2A-adrenergic receptor (human, UniProt P08913 1-465)
T1 construct: α2A-adrenergic receptor, human; printed residue numbers (D128, R146, I154, R241, Y441) are those of the deposited models; eGFP and 8xHis follow a PreScission site and were removed by PreScission protease during complex assembly; In the cAMP assays α2A-AR was transfected into HEK293 or CHO cells; that plasmid construct is not described; also called α2A-AR; source: Sf9 insect cells, purified …
T1 sequence (looked up): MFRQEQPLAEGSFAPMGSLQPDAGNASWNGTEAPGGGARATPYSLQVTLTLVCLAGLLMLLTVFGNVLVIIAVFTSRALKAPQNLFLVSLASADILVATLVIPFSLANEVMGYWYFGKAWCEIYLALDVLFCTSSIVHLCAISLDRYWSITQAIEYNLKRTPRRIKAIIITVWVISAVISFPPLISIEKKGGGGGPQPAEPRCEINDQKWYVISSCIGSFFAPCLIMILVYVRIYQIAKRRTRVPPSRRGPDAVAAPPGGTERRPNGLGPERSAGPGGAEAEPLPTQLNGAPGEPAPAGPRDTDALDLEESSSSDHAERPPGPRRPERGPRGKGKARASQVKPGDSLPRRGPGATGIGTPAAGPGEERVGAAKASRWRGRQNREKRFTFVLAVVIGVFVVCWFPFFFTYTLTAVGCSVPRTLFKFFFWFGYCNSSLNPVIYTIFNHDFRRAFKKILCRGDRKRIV
Assay: cryo-EM structure; epinephrine–α2A-AR–Gi complex assembled from purified proteins with apyrase and 1 mM epinephrine, purified by SEC in 10 mM HEPES (pH 7), 100 mM NaCl, 0.1 mM TCEP, 0.02% LMNG, 25 µM epinephrine; Gαi nucleotide free; 2.8 Å
Conditions: both partners purified

B1: rat Gαi dominant negative (G203A) (natural protein)
chain: not shown
notes: Nucleotide free in the complex with α2A-AR (apyrase added during assembly); also called Gαi1(G203A); Gαi(G203A); source: E. coli BL21 (DE3), purified (Ni-NTA, SEC)
  binding result: binds
